Results as given in publication PMC12136788.
The list shows a part of the results.

T1: UNK ZnF1-3 (human, UniProt Q9C0B0 31-174)
T1 sequence: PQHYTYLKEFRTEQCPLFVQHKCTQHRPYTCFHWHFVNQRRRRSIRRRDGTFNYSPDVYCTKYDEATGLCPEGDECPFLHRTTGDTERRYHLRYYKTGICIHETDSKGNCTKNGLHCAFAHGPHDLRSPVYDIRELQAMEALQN

B1: chr5:128440902:128440903:+_ENSG00000066583_ENST00000173527|hu_mus|hu_hu_hu_mus_True|18_108 (ssRNA)
RNA: GGGAGUUCUACAGUCCGACGAUCUUGAACCGUGCUCCCAAGUCCUUUGGGGUAUUGUUCCGUUAUGAUAACUGGAAUCCCUAAGAUCCGAGCUCCUUGCAACAGUCUCUGUCCCACGCUAAUAAUAUCCCCAAAGUAUUUGAUCAACAGAGGAUUGAGCAUCA
B2: chr12:113201503:113201504:-_ENSMUSG00000021290_ENSMUST00000021719|mus_hu|FALSE|FALSE (ssRNA)
RNA: GGGAGUUCUACAGUCCGACGAUCCCGGAUUUUAUAAACGAUGAAGCCCAUCAGCCCCAUUCCUAUCCAAAUCUCCUGGUAAACUUUGGUGUAGUAGGGCUUCAUGGGGAUCCAUAUGUUUUUAAUAAUACUUUGAAGCAUCUUCAACAGAGGAUUGAGCAUCA
B3: 131177157_131177277_6978_3pUTR_ENSG00000128585_ENST00000352689|human|control|control (ssRNA)
RNA: GGGAGUUCUACAGUCCGACGAUCCUCAAGCAAUCUUCCCGUGUCAGCCUCCCAAAGGUCUGGGAUUACAGGCGUGAGUCACUAUGCCCAGCCUAAAUUCACAUUCUUGAGGGGAAGAGACAUAUAUAAGGCUGCAUUAUUUUUCAACAGAGGAUUGAGCAUCA
B4: chr5:145543945:145543946:-_ENSG00000133706_ENST00000545646|hu_hu|hu_hu_hu_mus_True|38_78 (ssRNA)
RNA: GGGAGUUCUACAGUCCGACGAUCCUGAACGGCCAGUGGUGGGAAAUAAUCAAGCCAAUGUUCUGCUUCAGAAAACUUCACUAUGUCGUCAUCAGAGAGGCCAAGGGAUUUCAUAAUGUCCCACUGGUACUUAGAAGAUCCUGCCAACAGAGGAUUGAGCAUCA
B5: chr17:5336369:5336370:-_ENSG00000108561_ENST00000225698|hu_hu|FALSE|FALSE (ssRNA)
RNA: GGGAGUUCUACAGUCCGACGAUCGGCUUUCAGCAUCUGUCUGCUCUACUGGCUCUUGACAAAACUCUUGAGGUCUUCAAGAAAAGUAAUGUACUCCUGGUGCUCCAGGGCUGUGCUGAGCUCCACCAGCUCAUCUGCAAAAGUCAACAGAGGAUUGAGCAUCA
B6: 46582372_46582492_2479_3pUTR_ENSG00000111371_ENST00000398637|human|control|control (ssRNA)
RNA: GGGAGUUCUACAGUCCGACGAUCGUAGGAAAAUUAUUUCAGAAUCUGGAUGUAUAAUAAAUAAACAUUAUUGUAUAUCAUGUUUUCAAAGUUCUAAGAGACCGGGAAGCCACAAAACAUAGAGUUAGAUGGGUAAAAAAUGAUCAACAGAGGAUUGAGCAUCA
B7: chr12:76570751:76570752:-_ENSMUSG00000021051_ENSMUST00000021447|perfect_dup|FALSE|FALSE (ssRNA)
RNA: GGGAGUUCUACAGUCCGACGAUCUGUUUCAUAAACAAACCUUAGAAAAAUAUUGUUAAUUUGUUUUCGGAUAAAUGCUCUAAGCCCGAGAAACUUGCCAUAAAUCCUGUGCAAGACUGUUUUUAAAUAGUCCCGUUCUCGAGGCAACAGAGGAUUGAGCAUCA
B8: 12980288_12982455_1297_CDS_ENSG00000213782_ENST00000358007|human|control|control (ssRNA)
RNA: GGGAGUUCUACAGUCCGACGAUCAGCCACCUUGUUCCUGACACCAAUAGCACCCUCUGUGUCAUCAUUAUCUCCAGCAUCCUCUCGCGAGCGUUUCUUCUUUUCUCCAUGCUCCCUUAACUCCAUUCGGGCAAACCUUUGGGCCAACAGAGGAUUGAGCAUCA
B9: 30271051_30271171_222_3pUTR_ENSMUSG00000026853_ENSMUST00000028207|mouse|control|control (ssRNA)
RNA: GGGAGUUCUACAGUCCGACGAUCUCACGGGGCGGAGCUUUGGUGGCUCGCAGUCCCCGGCCGCUCGCCCCGAUCUCGGGGUGGGCCCAAGCCGGGGAGUGGCCGCAGAGGGCGGGGCUUGCGGAGACGGACCUCUAGCUCAGCCAACAGAGGAUUGAGCAUCA
B10: chr11:120422317:120422318:-_ENSMUSG00000025130_ENSMUST00000026122|mus_hu|FALSE|FALSE (ssRNA)
RNA: GGGAGUUCUACAGUCCGACGAUCCUGCCUGGAGAUGGAUCCCUUUCCAAAAACCGAAAAGCAGAAGGAAGAGACGGGGGUGAACGGACGGUGUGUAGGGGUGAGGUGUCACUUCAGAGAGGUUCCCUGGGUUUCCGGCGACGCCAACAGAGGAUUGAGCAUCA
B11: chr4:42069135:42069136:+_ENSG00000014824_ENST00000513699|hu_hu|motif|central (ssRNA)
RNA: GGGAGUUCUACAGUCCGACGAUCGCUGCUAUUAUAACUCCCAAGACUGCAGCAGUAUCCUCCAAUAAUAUCACAUUUGUACGGGGAUCACGACUUUCCAUUACAUACUUGUAAAAUGACAUUCCUUUAGCCCGAGCAUUCCUACAACAGAGGAUUGAGCAUCA
B12: 116024381_116024501_2413_3pUTR_ENSG00000136868_ENST00000374212|human|control|control (ssRNA)
RNA: GGGAGUUCUACAGUCCGACGAUCUCUGCUUGGUAUAAGCACAGUUGUUGGAGCCUGAGGAAAACCUGGCCAUCAACAAACCACAGCCUGAGUCUUUCCAAAGAGAAAGCUGGGCUUUUGCCCUUCUGGCCCAUGACUGGUAGACAACAGAGGAUUGAGCAUCA
B13: chr7:56126341:56126342:+_ENSG00000146731_ENST00000540286|hu_mus|hu_hu_hu_mus_True|1_1 (ssRNA)
RNA: GGGAGUUCUACAGUCCGACGAUCCAUGUUUCUCCUCUUGGCUCUGCGCAGAGCUACGAUCCCUUCUUUCGCAAGGGCAUCUAAGGAAAAGGGGUCAAUCCCCUUUUGAUUAAUAACGACAAAUCCUUUAUCUGAGUCGCCACACAACAGAGGAUUGAGCAUCA
B14: 18505097_18505217_937_CDS_ENSG00000101310_ENST00000262544|human|control|control (ssRNA)
RNA: GGGAGUUCUACAGUCCGACGAUCAAAUGUGAUCAGACCCACCAGAGCAUCUGGAGGAAGAAGACUCAGGGACAUCUGCAGGGACUCUUUGAGUGCUUGAAGGUCAUCUUCCUCCAGGCAUGUGUCAACCACAUAGAGAAAGAUCAACAGAGGAUUGAGCAUCA

These binders were tested against T1, UNK ZnF1-3 (assay: nsRBNS (natural sequence RNA bind-n-seq); RBNS binding buffer (assumed for nsRBNS): 25 mM Tris pH 7.5, 150 mM KCl, 3 mM MgCl2, 0.01% Triton X-100, 500 ug/ml BSA, 20 U/ml SUPERase-In, 4 C; UNK is unkempt and MSI1 is Musashi-1; names of the RNAs are library labels; protein concentration not given here; high values mean tight binding).

Row | Binder | binding signal [enrichment R]
1 | B1 | 0.785
2 | B2 | 0.513
3 | B3 | 0.997
4 | B4 | 1.13
5 | B5 | 1.07
6 | B6 | 1.82
7 | B7 | 2.19
8 | B8 | 0.981
9 | B9 | 0.932
10 | B10 | 1.81
11 | B11 | 1.11
12 | B12 | 1.18
13 | B13 | 0.912
14 | B14 | 0.77
